Results: the supplement of paper PMC9446081
Among all 39,000 compounds or so, about 220 (0.56%) showed activity. The list shows a part of the results.

Each compound was assayed on Escherichia coli K-12 BW25113 (assay: relative growth (OD600 normalised to plate interquartile mean) (fraction); higher = less growth inhibition, active = 0.2 or less). Details: 50 µM; LB; incubation time: overnight (16-24 h).
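Also: static incubation at 37 °C against the wild-type strain, values averaged over two biological replicates.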

SMILES	relative growth
Cc1ccc(S(=O)(=O)N2C[C@@H](O)COC[C@@H]3O[C@H](CC(=O)N4CCc5ccccc5C4)CC[C@H]32)cc1	inactive: 1.01
COc1ccc(S(=O)(=O)Nc2ccc3c(c2)C(=O)N([C@@H](C)CO)C[C@@H](C)[C@H](CN(C)CC2CCCCC2)OCCCC[C@H](C)O3)cc1	inactive: 0.989
C[C@@H]1CN([C@H](C)CO)C(=O)Cc2cc(NS(=O)(=O)c3cccs3)ccc2O[C@H]1CN(C)Cc1ccc(Cl)c(Cl)c1	inactive: 0.998
Cc1noc(C)c1S(=O)(=O)N(C)C[C@@H]1Oc2ccc(NC(=O)CCCN(C)C)cc2C(=O)N([C@H](C)CO)C[C@@H]1C	inactive: 0.993
COc1ccccc1NC(=O)N(C)C[C@H]1OCc2ccccc2-c2c(n(C)c3ccccc23)C(=O)N([C@@H](C)CO)C[C@H]1C	inactive: 0.992
C[C@H](CO)N1C[C@H](C)[C@H](CN(C)C(=O)NC2CCCCC2)Oc2ccc(NC(=O)C3CC3)cc2C1=O	inactive: 1.01
COC(=O)[C@@H](Cc1ccc(-n2cc(COc3ccccc3/C=C(C)/C=C/C(=O)NO)nn2)cc1)N1CC2=C[C@H](C3CC3)n3c(=O)n(C)c(=O)n3[C@@H]2[C@H]1[C@H](O)Cc1ccccc1	inactive: 1.02
CCS(=O)(=O)Nc1ccc2c(c1)C(=O)N(C)[C@H]1CC[C@@H](CC(=O)NCc3ccc(OC)cc3)O[C@@H]1CO2	inactive: 0.967
CC(=O)N1CCC(N)CC1	inactive: 1.01
C[C@H](CO)N1C[C@H](C)[C@H](CN(C)S(=O)(=O)c2cccs2)Oc2ccc(NS(=O)(=O)c3cn(C)cn3)cc2CC1=O	inactive: 1.01
C[C@H]1CN([C@@H](C)CO)C(=O)Cc2cc(NC(=O)Nc3cccc4ccccc34)ccc2O[C@@H]1CN(C)C(=O)NC1CCCCC1	inactive: 1.01
CC[C@@H]1CN(C(=O)c2ccccn2)N1	inactive: 1.01
C[C@@H]1CN([C@@H](C)CO)C(=O)c2cc(NS(=O)(=O)c3ccc(Cl)cc3)ccc2O[C@@H](C)CCCCO[C@H]1CN(C)C(=O)Cc1ccccc1	inactive: 1.03
C[C@@H]1CCCCO[C@H](CN(C)Cc2ccncc2)[C@@H](C)CN([C@H](C)CO)C(=O)c2cc(NC(=O)Nc3ccccc3)ccc2O1	inactive: 1.01
Cc1noc(C)c1NC(=O)Nc1ccc2c(c1)C(=O)N([C@H](C)CO)C[C@@H](C)[C@H](CN(C)S(=O)(=O)c1ccccc1)OCCCC[C@H](C)O2	inactive: 0.999
Cc1cc(=O)oc2cc(O[C@H]3O[C@@H](CO)[C@@H](O)[C@@H](O)[C@@H]3O)ccc12	inactive: 1.03
C[C@H](CO)N1C[C@H](C)[C@@H](CN(C)Cc2ccc(Oc3ccccc3)cc2)OCc2ccccc2-c2ccccc2C1=O	inactive: 1.02
CN(C)S(=O)(=O)N1CCN(CC(=O)Nc2ccc(Br)cc2)CC1	inactive: 0.966
C[C@@H]1CCCCO[C@H](CN(C)S(=O)(=O)c2cccs2)[C@H](C)CN([C@@H](C)CO)C(=O)c2cc(NC(=O)Nc3ccc(C(F)(F)F)cc3)ccc2O1	inactive: 0.995

SMILES	relative growth
COCC(=O)Nc1ccc2c(c1)C(=O)N(C)[C@H]1CC[C@@H](CC(=O)NC3Cc4ccccc4C3)O[C@@H]1CO2	inactive: 1.02
C#CCN1C(=O)N(C(=O)c2ccccc2)[C@@]2(COCc3ccc(OC)cc3)Oc3ccccc3[C@@H]1[C@H]2CO[Si](C)(C)C(C)(C)C	inactive: 1.01
C[C@H](CO)N1C[C@H](C)[C@@H](CN(C)S(=O)(=O)c2cccs2)Oc2ccc(NS(C)(=O)=O)cc2CC1=O	inactive: 1.01
CC1(C)CCC2(C(=O)O)CCC3(C)C(=CCC4C5(C)CCC(O)C(C)(C)C5CCC43C)C2C1 (stereo not drawn)	inactive: 1.03
C[C@@H]1CN([C@H](C)CO)C(=O)c2cc(NC(=O)Nc3ccc4c(c3)OCO4)ccc2O[C@@H](C)CCCCO[C@@H]1CN(C)Cc1ccc(C(=O)O)cc1	inactive: 1.02
C[C@@H]1CCCCO[C@H](CN(C)Cc2ccccc2)[C@H](C)CN([C@@H](C)CO)C(=O)c2cc(NC(=O)Cc3ccccc3)ccc2O1	inactive: 1.03
CCC(=O)N(C)C[C@@H]1Oc2ncc(C#C[C@@H](C)O)cc2C(=O)N([C@H](C)CO)C[C@H]1C	inactive: 1.01
C[C@@H]1CN([C@@H](C)CO)S(=O)(=O)c2ccc(-c3cccnc3)cc2O[C@H]1CN(C)CC1CCOCC1	inactive: 1.02
COc1ccc(-c2ccc3cc(C(=O)O)ccc3c2)cc1C12CC3CC(CC(C3)C1)C2	inactive: 1.02
Cc1noc(C)c1S(=O)(=O)Nc1ccc2c(c1)C(=O)N([C@@H](C)CO)C[C@H](C)[C@@H](CN(C)C(=O)Nc1ccc(F)cc1)OCCCC[C@@H](C)O2	inactive: 0.998
CCc1nc2ccc(C(=O)Nc3ccc(C(N)=O)cc3)cn2c1N(CC)Cc1cccc(Br)c1	inactive: 1.01
C[C@@H]1CN([C@@H](C)CO)C(=O)c2cc(NC(=O)Nc3ccc(F)cc3)ccc2O[C@@H](C)CCCCO[C@@H]1CN(C)S(=O)(=O)c1cccs1	inactive: 1.03
C[C@@H]1CN([C@@H](C)CO)C(=O)c2cccc(NC(=O)Nc3cccc4ccccc34)c2O[C@H]1CN(C)CC1CC1	inactive: 0.963
O=C(C[C@@H]1C=C[C@@H](NC(=O)Nc2ccc3c(c2)OCO3)[C@H](CO)O1)NCCCN1CCOCC1	inactive: 0.987
C[C@H]1CN([C@@H](C)CO)S(=O)(=O)c2ccc(Br)cc2O[C@H]1CN(C)Cc1ccc(F)cc1	inactive: 0.981
Cl.Nc1c2c(nc3ccccc13)CCCC2	inactive: 0.911
COc1cccc(S(=O)(=O)Nc2ccc3c(c2)[C@H]2C[C@@H](CC(=O)NC4CCCCC4)O[C@@H](CO)[C@H]2O3)c1	inactive: 1.02
COc1ccc(S(=O)(=O)N(C)C[C@@H]2Oc3c(NC(=O)Nc4cccc5ccccc45)cccc3C(=O)N(C(C)C)C[C@H]2C)cc1	inactive: 1.03
CNC1C(OC2C(OC3C(O)C(O)C(NC(=N)N)C(O)C3NC(=N)N)OC(C)C2(O)CO)OC(CO)C(O)C1O.O=S(=O)(O)O (stereo not drawn)	active: 0.0643
